Results reported in PubChem BioAssay AID488969 (Vanderbilt High Throughput Screening Facility, 2010).
Whole data set: some 110,000 compounds, median “z-score” near -0.1, cut for the highest 2% near 2. The list shows a part of the results.

Molecular target: Metabotropic glutamate receptor 8 (Rattus norvegicus) (UniProt P70579)
Assay: mGluR8 Gi/Go-coupled signaling modulation – cell-based, rat, thallium flux, HTS, primary screen (AID 488969)
Settings: HEK293 rat mGluR8, GIRK (G protein-gated inwardly rectifying potassium channel) thallium flux, FluoZin2; at 10 µM; stronger effect = higher value; submaximal glutamate (EC20) added with thallium

Sequence of UniProt P70579 (P70579 whole entry, looked up): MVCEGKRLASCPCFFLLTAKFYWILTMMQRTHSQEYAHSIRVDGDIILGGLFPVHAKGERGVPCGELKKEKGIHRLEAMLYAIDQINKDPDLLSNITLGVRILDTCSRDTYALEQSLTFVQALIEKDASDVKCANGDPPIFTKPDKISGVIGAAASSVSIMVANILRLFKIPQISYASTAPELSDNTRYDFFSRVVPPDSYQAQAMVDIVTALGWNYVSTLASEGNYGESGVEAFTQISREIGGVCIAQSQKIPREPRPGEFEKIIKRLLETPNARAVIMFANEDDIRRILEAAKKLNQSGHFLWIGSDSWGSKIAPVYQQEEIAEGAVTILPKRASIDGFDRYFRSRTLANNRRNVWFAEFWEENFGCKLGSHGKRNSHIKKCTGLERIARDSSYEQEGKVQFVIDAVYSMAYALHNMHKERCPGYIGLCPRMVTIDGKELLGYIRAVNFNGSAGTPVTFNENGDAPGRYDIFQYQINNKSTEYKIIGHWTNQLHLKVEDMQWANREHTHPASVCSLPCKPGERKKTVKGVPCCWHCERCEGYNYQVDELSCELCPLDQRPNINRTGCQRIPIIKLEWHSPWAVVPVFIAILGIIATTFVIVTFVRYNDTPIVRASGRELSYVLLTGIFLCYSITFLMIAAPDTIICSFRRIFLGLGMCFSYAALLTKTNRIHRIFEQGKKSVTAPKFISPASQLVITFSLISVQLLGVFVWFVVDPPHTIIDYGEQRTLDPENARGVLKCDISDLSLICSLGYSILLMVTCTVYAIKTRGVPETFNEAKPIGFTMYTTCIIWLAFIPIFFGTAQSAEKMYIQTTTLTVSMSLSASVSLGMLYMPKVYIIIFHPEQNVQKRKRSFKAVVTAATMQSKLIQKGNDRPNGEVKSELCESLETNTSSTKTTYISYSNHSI

| SMILES | z-score |
| --- | --- |
| O=C(CCNc1cccc(C(F)(F)F)c1)c1ccco1 | 0.394 |
| CCC1CSC(Nc2ccc(C(=O)/C=C/c3ccc(Br)cc3)cc2)=N1 (configuration not stated) | 0.0423 |
| O=C(NC(=S)Nc1ccc(N2CCOCC2)c(Cl)c1)C(c1ccccc1)c1ccccc1 | 0.604 |
| OCCN(/C=N/c1nc(-c2ccc(Br)cc2)cs1)CCO | 0.088 |
| COC(=O)c1sc2ccccc2c1NC(=O)c1ccc(S(=O)(=O)N2CC(C)CC(C)C2)cc1 (configuration not stated) | 0.0183 |
| CCc1c(C)c2ccc(OCC(N)=O)cc2oc1=O | -0.195 |
| CC1CN(S(=O)(=O)c2cccc(C(=O)NCc3ccc4c(c3)OCO4)c2)CC(C)O1 (configuration not stated) | -0.123 |
| O=C(c1ccc(COc2ccccc2Cl)o1)N1CCCC1 | -1.8 |
| CC(=O)Cc1nsc(NC(=O)c2ccc(-c3cc(C(F)(F)F)ccc3Cl)o2)n1 | 0.485 |
| COc1ccc(/C=C/C(=O)Nc2c(C)nn(C)c2C)cc1COc1ccc(Br)cc1 | 0.177 |
| CCCCN(CC)CCNc1c(NC2CCN(C(=O)OCC)CC2)c(=O)c1=O | -1.21 |
| C=CCOC(=O)C1=C(C)NC(=O)NC1c1ccc(Cl)cc1 (configuration not stated) | -0.279 |
| COc1ccc(F)cc1S(=O)(=O)NC1CCCC1 | 0.43 |
| Cc1nnc2sc(SCC(=O)Nc3nccs3)nn2c1=O | -0.192 |
| O=C(CC(NS(=O)(=O)c1ccc(Cl)cc1)c1ccco1)N1CCc2ccccc21 (configuration not stated) | -0.213 |
| O=C(Oc1ccc(OC(=O)C2CCC2)cc1)C1CCC1 | 0.114 |
| Cc1ccc(S(=O)(=O)c2nc(-c3cccs3)oc2SCC(N)=O)cc1 | 0.451 |
| CCN1CCN(C(CNC(=O)c2ccc3c(c2)OCO3)c2cccnc2)CC1 (configuration not stated) | -0.319 |
| O=C(NCCc1nc2ccccc2[nH]1)c1ccc(F)cc1 | 0.297 |
| Cc1ccc(N2CCN(C(=S)c3ccc(N(C)C)cc3)CC2)cc1 | 0.175 |
| CN=C(Nc1cc(C)nn1CCC#N)c1ccccc1 | 1.23 |
| COc1ccc(OCC(=O)OCC(=O)Nc2ccc(S(=O)(=O)N3CCCCC3)cc2)cc1 | -0.684 |

| SMILES | z-score |
| --- | --- |
| Cc1cc(C)cc(NC(=O)CN2CCN(c3ncccn3)CC2)c1 | -0.465 |
| C/C(CC1(O)C(=O)Nc2ccccc21)=N\O (configuration not stated) | -1.49 |
| COc1ccc(Cn2cc(F)c(=O)n(CCC(C)C)c2=O)cc1[N+](=O)[O-] | 0.118 |
| Cc1ccc(C(=O)COC(=O)c2ccc(-c3cnc4ccccc4n3)cc2)cc1C | -0.0949 |
| CC(=O)c1ccc(OCC(O)CN2CCN(CC(O)COc3ccc(C(C)=O)cc3)CC2)cc1 (configuration not stated) | 0.453 |
| Cc1cc(C)n(C(C)n2nc(C)cc2C)n1 | 0.681 |
| CN(C)CCSc1nc(N)c2c3c(sc2n1)COC(C)(C)C3 | 0.731 |
| Cc1ccc2nc(C)cc(C(=O)OCC(=O)c3ccc(Cl)c([N+](=O)[O-])c3)c2c1 | -0.503 |
| N#Cc1cc(S(=O)(=O)c2ccccc2)c(N)[nH]c1=O | 0.026 |
| CCOC(=O)c1c(C)n(CCNC(C)=O)c2ccc(OC)cc12 | 0.105 |
| CC(C)(C)c1ccc(C(=O)NCC(=O)OCN2C(=O)c3ccccc3C2=O)cc1 | -0.892 |
| O=C(O)c1cc(-c2ccc(N3CCOCC3)cc2)nn1-c1ccc(F)cc1 | -0.497 |
| Cn1cc(-c2nnc(-c3ccccc3)o2)c2ccccc21 | 0.11 |
| O=C(CSc1nnc(-c2ccc(OC(F)F)cc2)o1)NC(=O)NCc1ccco1 | -0.253 |
| O=C(CN(Cc1cccs1)C(=O)CSc1nnc(COc2ccccc2)o1)NC1CCCC1 | 0.0368 |
| CCN1CCN(S(=O)(=O)c2ccc3c(c2)OCCO3)CC1 | 0.28 |
| COCCn1c(CN2CCN(c3ccc(OC)cc3)CC2)nc2c1c(=O)n(C)c(=O)n2C | -0.219 |
| O=C1C2CC=CCC2C(=O)N1Cc1ccccc1Cl (configuration not stated) | -0.35 |
| CCOC(=O)C1=C(C)N=c2s/c(=C\c3cc(OC)c(OC)c(OC)c3)c(=O)n2C1/C=C/c1ccccc1 (configuration not stated) | -0.0634 |
| CC1CC1c1ccc(/C=C(\C#N)C(=O)Nc2ccc(Cl)cc2)o1 (configuration not stated) | -0.332 |
| O=C(O)CCC(=O)N1CCc2cc(S(=O)(=O)N3CC=C(c4ccccc4)CC3)ccc21 | -0.389 |
| CC(NC(=O)c1cccs1)c1ccc2c(c1)OCO2 (configuration not stated) | -0.00444 |

| SMILES | z-score |
| --- | --- |
| CCOC(=O)COc1c(OC)cc(Cl)cc1C1Nc2ccccc2C(=O)N1c1ccc(F)cc1 (configuration not stated) | 0.0906 |
| CCCCNC(=O)c1onc(CSc2ccccc2C)c1C(=O)O | 0.0157 |
| COc1cccc(-n2nc(-c3ccnn3-c3ccccc3)c(=O)n(C)c2=O)c1 | -0.22 |
| Cn1c(=O)cc(SCC(=O)NCc2cccnc2)c2ccccc21 | -0.245 |
| O=C(COC(=O)CCc1ccc(S(=O)(=O)N2CCCCC2)cc1)Nc1cccc2ccccc12 | 0.0206 |
| CC(=O)N1CC(c2ccccc2)C(c2ccc(Cl)cc2)=N1 (configuration not stated) | -0.485 |
| O=C(Nc1ccccc1)c1cc2ccccc2o1 | -0.224 |
| CC1CCN(C(=O)c2ccc(SCc3ccccc3F)c([N+](=O)[O-])c2)CC1 | -0.84 |
| COc1ccc(NC(=O)c2cc(OC)c(OC)c(OC)c2Br)cc1OC | -0.423 |
| NC(=O)Cc1ccc(Nc2nnc(-c3ccc(O)cc3)c3ccccc23)cc1 | 0.207 |
| C#CCn1c(=NC(=O)c2ccccc2[N+](=O)[O-])sc2cc(S(C)(=O)=O)ccc21 | -0.119 |
| C/C(=N\NC(=O)c1nn(C)cc1Br)c1cccc(NC(=O)c2ccncc2)c1 | -0.176 |
| O=C(CCN1C(=O)C2C3CCC(C3)C2C1=O)OCC(=O)c1cccc([N+](=O)[O-])c1 (configuration not stated) | -0.207 |
| COc1ccc(CCSc2nnc(C3CCCCC3)n2N)cc1 | 0.27 |
| CN(C)N1C(=O)CC(NNC(=O)c2ccncc2)C1=O (configuration not stated) | -0.284 |
| CCC(=O)N(Cc1cc(=O)[nH]c2ccccc12)c1cccc(C)c1 | -0.236 |
| Cc1nnc2ccc(N3CCCC3)nn12 | 0.216 |
| Cc1cccc(NC(=S)NCc2ccncc2)c1C | 0.279 |
| O=C(COC(=O)c1ccccc1C(=O)c1ccc(Cl)c([N+](=O)[O-])c1)NC1CCCCCC1 | 0.341 |
| COc1cc(C)c(NC(=S)Nc2ccc(Cl)c(Cl)c2)cc1OC | 0.396 |
| COc1cccc(N/C(SCc2ccccc2C)=C(/C#N)C(=O)NCc2cccs2)c1 | 0.0519 |
| CCCCN1C(=O)C2(NNc3ccccc3O2)c2ccccc21 (configuration not stated) | -0.39 |

| SMILES | z-score |
| --- | --- |
| Cc1ccc(SCCNS(C)(=O)=O)cc1 | -0.065 |
| CCOC(=O)N1CCN(c2c(NCc3cccs3)c(=O)c2=O)CC1 | 0.0406 |
| COc1ccc(C(=O)Nc2ccccc2C(=O)NC(Cc2ccc(O)cc2)C(=O)NNC(=O)c2ccccc2Cl)cc1 (configuration not stated) | 0.251 |
| COc1cc(NC(=O)c2cc([N+](=O)[O-])ccc2Br)ccc1NC(=O)c1ccco1 | -0.624 |
| COc1cccc(N(C(=O)Cn2nnc(-c3ccc(C)cc3)n2)C(C(=O)NC(C)(C)C)c2c[nH]c3ccccc23)c1 (configuration not stated) | -0.0351 |
| O=C(O)c1cccc(Cn2c(Cl)c(/C=N/NC(=O)c3ccccc3)sc2=O)c1 | -0.0615 |
| Cc1ccc(C)c(Nc2ccc(C(=O)NCCc3ccccc3)cn2)c1 | -0.78 |
| COC(=O)c1ccc(/C=C/c2ccc3cccc(OC(C)=O)c3n2)cc1 | 0.152 |
| Cc1cc(=O)oc(C)c1C(=O)N1CCCc2ccccc21 | -0.0623 |
| Cc1cc(NC(=O)COc2ccc3oc4ccccc4c3c2)no1 | -0.195 |
| CCOC(=O)c1c(C)[nH]c(C(=O)/C(C#N)=C/c2ccc(OCC)cc2)c1C | 0.023 |
| CC(C)OC(=O)CSc1nc2ncccc2[nH]1 | -0.0946 |
| CCOC(=O)C(NC(=O)CC)(Nc1sc2c(c1C(=O)OC)CCN(C)C2)C(F)(F)F (configuration not stated) | 0.476 |
| COc1ccccc1OCCCOc1c(C)cc(C)cc1Br | -0.185 |
| Cc1cc2nc(-c3ccco3)cc(C(F)(F)F)n2n1 | 0.0437 |
| O=C(Nc1ncc(Cc2ccccc2Cl)s1)c1ccc([N+](=O)[O-])cc1 | -0.264 |
| COC(=O)c1ccc(/C=C(\C#N)C(=O)NC(C)c2ccccc2)cc1 (configuration not stated) | -0.166 |
| O=C(NCCCN1CCOCC1)c1ccc(CS(=O)(=O)c2cccc(C(F)(F)F)c2)o1 | 0.918 |
| CCN(CC)c1cc2nc(C)n(Cc3ccccc3)c(=O)c2cc1NC(=O)C1CC1 | -2.33 |
| COc1ccccc1NC(=O)Cc1coc2cc(C)ccc12 | -0.0264 |
| CCOC(=O)c1c(NC(=O)OC)sc(C(=O)N(CC)CC)c1C | -0.0155 |
| Cc1cc(-c2ccccc2)nc(N2CCC(C(=O)NCc3ccccc3Cl)CC2)n1 | -1.39 |

| SMILES | z-score |
| --- | --- |
| Cc1cccc(NS(=O)(=O)c2cccs2)n1 | 0.268 |
| CCC(C)NS(=O)(=O)c1ccc(S(=O)(=O)N2CCCC3(CCCCC3)C2)cc1 (configuration not stated) | 0.176 |
| O=C(Oc1cncc(Cl)c1)c1ccco1 | -0.00701 |
| Cc1cccc(OCc2nc(-c3cccnc3)no2)c1 | -0.172 |
| CCOC(=O)C1(C)/C(=N/Nc2ccccc2)C(=O)C(=O)N1c1ccccc1 (configuration not stated) | -0.468 |
| Clc1ccc(-c2cn3nc4c(nc3n2)CCCC4)cc1 | 0.182 |
| CCCNC(=O)c1cc(-c2ccco2)on1 | 0.696 |
| CCOC(=O)CNS(=O)(=O)c1cc(-c2nnc(Nc3ccc4c(c3)OCO4)c3ccccc23)ccc1C | -0.622 |
| COc1ccc(-c2csc(NC(=O)c3nc(-c4ccccc4)oc3C)n2)cc1 | 0.528 |
| Cc1ccc(C(=O)OCC(=O)NCCC2=CCCCC2)s1 | -0.3 |
| CCCc1cc(=O)oc2cc(OCc3cccc(OC)c3)c(Cl)cc12 | 0.508 |
| COc1ccc(CCNS(=O)(=O)c2ccc3oc(C(=O)O)c(C)c3c2)cc1OC | -0.553 |
| O=C(CN1C(=O)c2ccccc2S1(=O)=O)Nc1cccnc1 | 0.056 |
| CC(C)CNc1nnnc2c1sc1nc(N3CCOCC3)c3c(c12)CC(C)(C)SC3 | -0.392 |
| Cc1nc(SCC(=O)c2cc3ccccc3oc2=O)c(C#N)c(-c2ccccc2)c1C(=O)Nc1ccccc1 | -0.305 |
| CCOc1ccc(NC(=O)C2CCCN(S(=O)(=O)c3cccc4nsnc34)C2)cc1 (configuration not stated) | 0.0833 |
| Cc1ccc([N+](=O)[O-])cc1N=C(c1ccc([N+](=O)[O-])cc1)N1CCOCC1 | -0.237 |
| CCN=C1SC(CC(=O)NC(C)C)C(=O)N1CC (configuration not stated) | -0.0724 |
| N#C/C(=C/c1ccc(F)cc1)c1nc(CCN2C(=O)c3ccccc3C2=O)cs1 | 0.281 |
